The campaign covered roughly 360,000 compounds. About 25,000 (6.9%) were called active. This list was built around the results that the source calls inconclusive (neither active nor inactive); the mix of calls is not that of the screen. The call rests on the fitted dose curve; in most records, active means well fitted inhibition curve with a large enough effect; inconclusive means small, poorly fitted or top-dose-only effect; inactive means flat fitted curve, though single readings scatter. Potencies of inconclusive entries are doubtful fits and often do not repeat.
biological target: Luciferin 4-monooxygenase (Photinus pyralis) (UniProt P08659); assay: qHTS profiling assay for firefly luciferase inhibitor/activator using purifed enzyme and Km concentrations of substrates (counterscreen for miR-21 project); conditions: purified FLuc, luminescence inhibition; series mostly up to 57.5 µM; activity change, negative = inhibition: at the top concentration; further: nearly all actives have a fitted effect of over 55% in size;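 on activity change, negative = inhibition: plate controls were vehicle for no effect and reference inhibitor for full effect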
How it was run: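 Biochemical qHTS of compounds, final roughly 60 µM downward over six points, against 10 nM purified firefly luciferase using Km concentrations of substrates (10 uM D-luciferin, 10 uM ATP) in Tris acetate pH 7.5 buffer; luminescence output.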
Potency means the concentration at half of the fitted maximal effect; tags describe the fitted curve by direction and shape.

Chain of UniProt P08659 (P08659 whole entry, looked up): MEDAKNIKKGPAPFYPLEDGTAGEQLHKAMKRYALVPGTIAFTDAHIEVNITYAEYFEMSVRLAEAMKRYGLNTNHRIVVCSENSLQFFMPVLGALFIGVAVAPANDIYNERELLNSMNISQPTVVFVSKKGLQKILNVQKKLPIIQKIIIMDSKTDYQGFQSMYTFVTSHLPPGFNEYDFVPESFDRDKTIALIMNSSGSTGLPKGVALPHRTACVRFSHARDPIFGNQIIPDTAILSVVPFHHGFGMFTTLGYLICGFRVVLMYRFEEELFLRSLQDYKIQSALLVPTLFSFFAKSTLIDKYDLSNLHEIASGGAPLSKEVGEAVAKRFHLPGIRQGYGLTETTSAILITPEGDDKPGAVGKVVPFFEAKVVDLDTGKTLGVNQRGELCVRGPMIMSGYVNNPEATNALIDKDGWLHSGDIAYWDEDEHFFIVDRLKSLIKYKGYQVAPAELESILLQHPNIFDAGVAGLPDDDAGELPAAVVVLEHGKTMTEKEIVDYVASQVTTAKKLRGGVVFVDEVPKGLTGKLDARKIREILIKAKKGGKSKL

Row | SMILES | Potency | activity change, negative = inhibition
1 | NNC(=O)c1ccc(COc2ccc3ccccc3c2)o1 | inconclusive: 15.1 µM [inhibitor, partial curve] | –
2 | COc1ccc(/C=N/NC(=O)CCCC(=O)NC2CCCCC2)cc1 | inconclusive: 26.9 µM [inhibitor, single point] | –
3 | O=C(O)c1coc2ccccc12 | – | inactive: 1.58%
4 | c1ccc(Nc2nnc(-c3cccc4ccccc34)o2)cc1 | active: 2.13 µM | –
5 | C=CCNc1oc(-c2cccs2)nc1C#N | inconclusive: 23.9 µM [inhibitor, partial curve, poor fit] | –
6 | CN=C1S/C(=C\c2cn(CC(=O)OC)c3ccccc23)C(=O)N1C | active: 16.9 µM | –
7 | Cc1nc2ccccc2c(=O)n1/N=C/c1ccccc1O | inconclusive: 21.3 µM [inhibitor, partial curve] | –
8 | CC(C)(C)NC(=O)Nc1ccc(F)c(Cl)c1 | inconclusive: 21.3 µM [inhibitor, partial curve, poor fit] | –
9 | O=C(CSc1nccn1Cc1ccccc1)Nc1nccs1 | inconclusive: 26.9 µM [inhibitor, partial curve, poor fit] | –
10 | CN(C)CCCN1C(=O)c2oc3ccccc3c(=O)c2C1c1cccs1 (configuration not stated) | inconclusive: 21.3 µM [inhibitor, partial curve, poor fit] | –
11 | N#Cc1c(N2CCCCC2)nc(N)c2c(N)nc(SCC(=O)O)cc12 | active: 8.49 µM | –
12 | COc1ccc(Br)cc1CN1C(=O)NC2(CCCCCC2)C1=O | inconclusive: 26.9 µM [inhibitor, partial curve, poor fit] | –
13 | CCOc1ccc(CCNC(=O)Cc2ccc(NC(=O)N3CCSc4ncccc43)cc2)cc1 | – | inactive: 1.55%
14 | Cc1ccnc(NS(=O)(=O)c2ccc(NC(=O)/C=C/c3ccccc3)cc2)n1 | inconclusive: 37.9 µM [inhibitor, partial curve, poor fit] | –
15 | COC(=O)C1CCN(C(=O)/C=C/c2ccccc2)CC1 | inconclusive: 30.1 µM [inhibitor, single point] | –
16 | C#CCOCCOCCOCCNc1nc(N2CCN(C(=O)CCCCCCCCCCNC(=O)Cn3cc(C[C@@H](C)O)nn3)CC2)nc(N2CCN(C(=O)CCCCCCCCCCNC(=O)[C@H](CCCN=C(N)N)n3cc(C[C@@H](C)CC)nn3)CC2)n1 | inconclusive: 37.9 µM [inhibitor, single point] | –
17 | O=C(N/N=C/c1ccco1)C12CC3CC(CC(C3)C1)C2 | inconclusive: 26.9 µM [inhibitor, single point] | –
18 | CCn1nc(C)c(/C=N\NC(=O)c2cccc(OC)c2)c1C | inconclusive: 26.9 µM [inhibitor, single point] | –
19 | O=C(N/N=C/c1cccc2ccccc12)c1cccs1 | active: 2.13 µM | –
20 | COc1ccc(-c2cc3c(=O)n(CC(=O)N4CCCC4)ncn3n2)cc1 | inconclusive: 1.9 µM [inhibitor, partial curve, poor fit] | –
21 | COc1ccc(C(=O)/C=C/c2cc(OC)c(O)c(OC)c2)c(F)c1 | active: 19 µM | –

Row | SMILES | Potency | activity change, negative = inhibition
22 | CCCCn1c(N)c(N(CCOC)C(=O)c2ccc(N(C)S(=O)(=O)c3ccc(C)cc3)cc2)c(=O)[nH]c1=O | – | inactive: 2.28%
23 | CN(C)C(=O)CSc1ncccc1-c1nc2ccccc2[nH]1 | inconclusive: 37.9 µM [inhibitor, single point] | –
24 | CCOc1ccccc1CNC(=O)CN(c1ccc(C)cc1)S(=O)(=O)N(C)C | – | inactive: -0.123%
25 | CN(C(=O)COC(=O)CNC(=O)c1ccc(C(C)(C)C)cc1)c1c(N)n(Cc2ccccc2)c(=O)[nH]c1=O | inconclusive: 16.9 µM [inhibitor, partial curve] | –
26 | O=C(Nc1ccccc1)c1cc2ccccc2[nH]1 | active: 9.53 µM | –
27 | O=C(Nc1ccc(F)cc1)C1=CC(=O)N2CCN=C2S1 | inconclusive: 4.78 µM [inhibitor, partial curve] | –
28 | O=C1CC(c2ccco2)CC(O)=C1C=Nc1cc(Cl)ccc1O (configuration not stated) | inconclusive: 37.9 µM [inhibitor, partial curve, poor fit] | –
29 | CCOc1ccc(NC(=O)Cc2ccc(NC(=O)N3CCCCc4ccccc43)cc2)cc1 | inconclusive: 23.9 µM [inhibitor, partial curve] | –
30 | COc1ccc(Br)c(C(=O)OCc2cc(=O)oc3cc(C)ccc23)c1 | inconclusive: 8.49 µM [inhibitor, partial curve] | –
31 | CC(C)(C)c1ccc(S(=O)(=O)c2cnc(SCC(=O)Nc3ccc(F)c(Cl)c3)[nH]c2=O)cc1 | inconclusive: 8.49 µM [inhibitor, partial curve] | –
32 | Cc1ccc(C(=O)c2c3ccc([N+](=O)[O-])cc3[n+]([O-])n2CCCN)cc1 | inconclusive: 26.9 µM [inhibitor, partial curve, poor fit] | –
33 | COc1ccc2ccccc2c1C1CC(=O)N2CN(C3CCCCC3)CSC2=C1C#N (configuration not stated) | inconclusive: 10.7 µM [inhibitor, partial curve, poor fit] | –
34 | Oc1ccc(N2Cc3ccccc3C2)cc1 | – | inactive: -6.35%
35 | Cc1ccc(-c2nn(C)c(=O)c3ccccc23)cc1CO | inconclusive: 8.49 µM [inhibitor, partial curve, poor fit] | –
36 | Cc1ccn2c(=O)nc(SCC(=O)c3ccc(Cl)cc3)nc2c1 | – | inactive: -14%
37 | COC(=O)c1ccc([C@H]2Nc3ccc(S(=O)(=O)Nc4ccc(C)cc4)cc3[C@H]3C=CC[C@H]32)cc1 | inconclusive: 37.9 µM [inhibitor, partial curve, poor fit] | –
38 | [O-][n+]1c2ccccc2c2n1CCN=C2c1ccc(Cl)cc1 | inconclusive: 21.3 µM [inhibitor, partial curve, poor fit] | –
39 | N#Cc1ccccc1S(=O)(=O)N1CCCC(c2nc3c(nnn3Cc3cccc(Cl)c3)c(=O)[nH]2)C1 (configuration not stated) | – | inactive: -17.8%
40 | Cn1cc(Cl)c(C(=O)NNC(=S)NC2CCCCC2)n1 | inconclusive: 37.9 µM [inhibitor, partial curve, poor fit] | –
41 | O=C(CSc1nnc(Nc2ccccc2)s1)NCc1ccco1 | inconclusive: 23.9 µM [inhibitor, partial curve, poor fit] | –
42 | O=C(NCc1ccco1)c1c[nH]c2ccc(S(=O)(=O)Nc3ccc(F)cc3F)cc2c1=O | inconclusive: 6.01 µM [inhibitor, partial curve] | –

Reference: PubChem BioAssay AID588342 (National Center for Advancing Translational Sciences (NCATS), 2011)
